Data as given in the supplement of paper PMC3334620.
Over roughly 33,000 sequences, “E-score (-0.5 to 0.5)” has its median near -0.013; the highest 2% begin near 0.3. Some of the results follow.

The sequences below were run against T1, Msn1 (UniProt P22148) (assay: PBM E-score (8-mer binding enrichment) (E-score (-0.5 to 0.5)); higher = stronger / more preferred TF binding; most listed sequences are background and not binding sites). Conditions: protein concentration: 200 nM; construct: GST-full length.
T1 sequence: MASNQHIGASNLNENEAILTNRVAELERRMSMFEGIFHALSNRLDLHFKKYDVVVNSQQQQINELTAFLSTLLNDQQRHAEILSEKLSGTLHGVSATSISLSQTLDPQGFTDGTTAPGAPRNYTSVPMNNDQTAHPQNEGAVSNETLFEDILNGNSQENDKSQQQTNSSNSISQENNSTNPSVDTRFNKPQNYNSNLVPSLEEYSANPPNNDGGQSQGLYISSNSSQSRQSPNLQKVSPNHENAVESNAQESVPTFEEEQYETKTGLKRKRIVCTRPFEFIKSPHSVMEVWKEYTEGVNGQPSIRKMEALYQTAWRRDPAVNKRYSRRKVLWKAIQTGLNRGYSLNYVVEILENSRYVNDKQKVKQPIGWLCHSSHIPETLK
Summary of the method: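 GST-tagged yeast TFs (full-length or DNA-binding domain) were made by PURExpress in vitro transcription/translation and applied at about 100-200 nM to universal all-10-mer Agilent arrays. The arrays were made double-stranded by primer extension, on fresh or once-stripped slides. Bound protein was detected with fluorescent anti-GST, and scans were normalised with masliner. Each ungapped eight-base word, pooled with its reverse complement, received an E-score (modified Wilcoxon-Mann-Whitney statistic) from the Universal PBM Analysis Suite.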

| Sequence | PBM E-score |
| --- | --- |
| CATGAATG | 0.0844 |
| CCTAGGGC | -0.059 |
| ATGTGCAG | -0.0809 |
| CCTTCTAA | -0.143 |
| ATATCATG | -0.117 |
| CGAATACA | -0.00174 |
| ATGCAGAA | 0.0315 |
| GCAGTAAA | -0.0255 |
| AGCTTAAC | -0.0666 |
| AGTTTTCC | -0.00968 |
| GCTGGCTA | -0.208 |
| AAAACACG | 0.0849 |
| ATATGTAG | 0.135 |
| CCAGCGGG | -0.0833 |
| GTAACCAC | -0.273 |
| TGCGGCAA | -0.134 |
| CTTCCTTC | -0.35 |
| CATACTTC | -0.117 |
| AGAAAGAT | 0.136 |
| CTATGCTC | -0.156 |
| AAACGCTG | -0.0686 |
| ATTAGGGA | 0.0137 |

| Sequence | PBM E-score |
| --- | --- |
| ACGGTAGT | 0.0315 |
| AAGGTGTC | 0.09 |
| GCCCACAC | -0.213 |
| AATAGGGG | -0.0878 |
| CGCAGGAG | -0.233 |
| AGGGTACA | 0.0979 |
| ACAGGGTC | -0.163 |
| ATCTTGAA | 0.102 |
| GTTTATGA | 0.159 |
| CGTCTTAA | 0.0585 |
| CTCTGGCA | -0.149 |
| CTTTTACC | 0.149 |
| TAAGATAA | 0.0274 |
| CTGTTGTC | 0.247 |
| AATCAGCC | -0.192 |
| TTCTTCAA | 0.0945 |
| CAGTGAGA | 0.0144 |
| AACGTTGT | 0.121 |
| CGAAGACG | -0.0884 |
| TCCAAACA | 0.0529 |
| CGCTTTTC | -0.175 |
| GACAAGAC | 0.311 |

| Sequence | PBM E-score |
| --- | --- |
| CGATGTGA | -0.0848 |
| ATACCTGG | -0.0908 |
| AGCTTCTC | -0.11 |
| GTCACGAA | 0.126 |
| CGGACAAA | 0.484 |
| GGTGGCGA | -0.24 |
| CACATACC | 0.0401 |
| GAACTTAC | 0.0973 |
| AGTCGGTC | -0.175 |
| CGGTCTTA | -0.0302 |
| AATGTTAC | -0.0136 |
| CGGAACAA | 0.268 |
| AAAACGGC | 0.0785 |
| AGCAAAAT | 0.174 |
| CGTGGGCC | -0.061 |
| CTGGACGA | -0.205 |
| CCGTGGAA | -0.0597 |
| CCTGGCAG | -0.0475 |
| CCCTAACC | -0.243 |
| ACTGCAAA | 0.0756 |
| TATGCTGA | 0.105 |
| TGCGAGAA | -0.167 |

| Sequence | PBM E-score |
| --- | --- |
| CCTACTAA | 0.0386 |
| CGAGCCCG | -0.0803 |
| ACTTATCG | 0.165 |
| CCGGTTCC | -0.103 |
| ATACCAAG | -0.0141 |
| ACCACTCT | -0.118 |
| ACGTCGAC | 0.118 |
| CAACATTA | 0.00611 |
| AGACTCGG | -0.17 |
| ACTCCTAC | -0.224 |
| GCATAAGC | 0.101 |
| CTGCCCAC | -0.138 |
| CCCAGAGA | -0.0772 |
| AATATACC | 0.148 |
| ACCATACC | -0.238 |
| CATGTGTC | 0.298 |
| AAAAGTTT | 0.0561 |
| ACGAGGAG | -0.0753 |
| AAGTGGGC | -0.0116 |
| CGACCTCA | -0.14 |
| CCCTACGA | -0.12 |
| ATGAACCA | 0.0621 |

| Sequence | PBM E-score |
| --- | --- |
| ATCAGCAT | 0.178 |
| CAGAGTAG | -0.129 |
| ATGACATG | 0.361 |
| ACAGGCGG | -0.0513 |
| AGGTACGG | -0.142 |
| CGCTGATA | -0.0744 |
| ACGGCTGG | -0.3 |
| GCTTGGCA | -0.022 |
| TAAATATA | 0.207 |
| ACTGGCCT | -0.11 |
| GACAGTCC | -0.0448 |
| ACGACAAG | 0.0652 |
| AAAGTGAC | -0.0883 |
| CCTAGTCA | -0.114 |
| CTTCGAGA | 0.0311 |
| GTCAAAAA | 0.128 |
| GTCAGCTA | -0.194 |
| GTATGGCA | 0.00486 |
| CAGTATCA | 0.00611 |
| ATGCCACG | -0.243 |
| CACACAAA | 0.115 |
